We go through 153 variants from a collection of fitness landscapes (doi:10.1126/science.1257360).

Sequences and labels used below:
B1: PhoQ; a variant is named by its letters at X, in order, P23837 (parent)
chain: MKKLLRLFFPLSLRVRFLLATAAVVLVLSLAYGMVALIGYSVSFDKTTFRLLRGESNLFYTLAKWENNKLHVELPENIDKQSPTMTLIYDENGQLLWAQRDVPWLMKMIQPDWLKSNGFHEIEADVNDTSLLLSGDHSIQQQLQEVREDDDDAEMTHSVAVNVYPATSRMPKLTIVVVDTIPVELKSSYMVWSWFIYVLSANLLLVIPLLWVAAWWSLRPIEALAKEVRELEEHNRELLNPATTRELTSLVRNLNRLLKSERERYDKYRTTLTDLTHSLKTPLXXLQXXLRSLRSEKMSVSDAEPVMLEQISRISQQIGYYLHRASMRGGTLLSRELHPVAPLLDNLTSALNKVYQRKGVNISLDISPEISFVGEQNDFVEVMGNVLDNACKYCLEFVEISARQTDEHLYIVVEDDGPGIPLSKREVIFDRGQRVDTLRPGQGVGLAVAREITEQYEGKIVAGESMLGGARMEVIFGRQHSAPKDE

This is one part of the list. A value given as a limit tells only on which side of the number the result lay.

The variants in the test derive from B1. The experiment in a line: enrichment ratio after two sorts for PhoP signalling (ratio (wild type AVST 3.29)); higher = more functional. The conditions noted are these: with PhoP (E. coli).
With FHKG, the enrichment ratio is ≤ 0.25.

With YHDM, the enrichment ratio is ≤ 0.25.

Consider WNWV, for which the enrichment ratio is ≤ 0.25.

Regarding IKSG, the enrichment ratio is ≤ 0.25.

On to PCTA, for which the enrichment ratio is ≤ 0.25.

Take EYMA: the enrichment ratio was ≤ 0.25.

For the variant EFCL, the enrichment ratio was ≤ 0.25.

For the variant KDPF, the enrichment ratio was ≤ 0.25.

Consider RQAS, for which the enrichment ratio was ≤ 0.25.

Take LYCQ: the enrichment ratio was ≤ 0.25.

In the case of MQPP, the enrichment ratio is ≤ 0.25.

On to WRYC, for which the enrichment ratio was ≤ 0.25.

Take YSTA: the enrichment ratio was ≤ 0.25.

Regarding WKWF, the enrichment ratio was ≤ 0.25.

In the case of VGYP, the enrichment ratio was ≤ 0.25.

Take FHVA: the enrichment ratio is ≤ 0.25.

Turning to AAPA, the enrichment ratio was ≤ 0.25.

Turning to VPFG, the enrichment ratio is ≤ 0.25.

For MRLV, the enrichment ratio was ≤ 0.25.

For SYSC, the enrichment ratio was ≤ 0.25.

For DYKD, the enrichment ratio is ≤ 0.25.

On to NITS, for which the enrichment ratio turned out to be 4.94.

LSQT: the enrichment ratio is ≤ 0.25.

Turning to EGYG, the enrichment ratio is ≤ 0.25.

GAPE: the enrichment ratio was ≤ 0.25.

Take PTSS: the enrichment ratio was ≤ 0.25.

As to IKHM, the enrichment ratio is ≤ 0.25.

In the case of RYRN, the enrichment ratio was ≤ 0.25.

With PGEV, the enrichment ratio is ≤ 0.25.

With PTFS, the enrichment ratio was ≤ 0.25.

Consider RMKY, for which the enrichment ratio is ≤ 0.25.

Consider ELPK, for which the enrichment ratio was ≤ 0.25.

Turning to WVFL, the enrichment ratio is ≤ 0.25.

ATVD: the enrichment ratio was ≤ 0.25.

Take WKPW: the enrichment ratio is ≤ 0.25.

Take MKPR: the enrichment ratio was ≤ 0.25.

On to SHLQ, for which the enrichment ratio turned out to be 7.83.

For MHLE, the enrichment ratio is ≤ 0.25.

In the case of EPRW, the enrichment ratio is ≤ 0.25.

For FMHT, the enrichment ratio is ≤ 0.25.

Consider YFMH, for which the enrichment ratio was ≤ 0.25.

Turning to RNGH, the enrichment ratio is ≤ 0.25.

For ASDW, the enrichment ratio is ≤ 0.25.

PIHR: the enrichment ratio is ≤ 0.25.

Regarding AFFV, the enrichment ratio is ≤ 0.25.

Turning to YFGM, the enrichment ratio is ≤ 0.25.

As for GGFR, the enrichment ratio was ≤ 0.25.

With RQIP, the enrichment ratio is ≤ 0.25.

For the variant GGCE, the enrichment ratio is ≤ 0.25.

On to HPDM, for which the enrichment ratio is ≤ 0.25.

Consider ASLW, for which the enrichment ratio worked out at 1.6.

Turning to IAGS, the enrichment ratio was ≤ 0.25.

As for TKLI, the enrichment ratio was determined as 13.

Turning to KRRF, the enrichment ratio is ≤ 0.25.

Take NLLP: the enrichment ratio was ≤ 0.25.

As to WTVW, the enrichment ratio is ≤ 0.25.

Turning to PDKN, the enrichment ratio was ≤ 0.25.

Take MDYH: the enrichment ratio was ≤ 0.25.

Consider NNQA, for which the enrichment ratio was ≤ 0.25.

For YGPC, the enrichment ratio was ≤ 0.25.

With VNNQ, the enrichment ratio was ≤ 0.25.

Consider LWMH, for which the enrichment ratio is ≤ 0.25.

Regarding AWCY, the enrichment ratio was ≤ 0.25.

Turning to KRMM, the enrichment ratio was ≤ 0.25.

Turning to VVYE, the enrichment ratio is ≤ 0.25.

As for NSFH, the enrichment ratio is ≤ 0.25.

Turning to ECDM, the enrichment ratio is ≤ 0.25.

Take YDFF: the enrichment ratio is ≤ 0.25.

EDCC: the enrichment ratio was ≤ 0.25.

Consider MYIE, for which the enrichment ratio is ≤ 0.25.

Turning to SREL, the enrichment ratio was ≤ 0.25.

For RYTF, the enrichment ratio was ≤ 0.25.

Turning to KMEC, the enrichment ratio was ≤ 0.25.

As to QYHF, the enrichment ratio is ≤ 0.25.

For the variant QHCA, the enrichment ratio is ≤ 0.25.

Consider HEMP, for which the enrichment ratio is ≤ 0.25.

Turning to LELM, the enrichment ratio came out at 5.99.

Consider TYVT, for which the enrichment ratio was ≤ 0.25.

As for DATV, the enrichment ratio was ≤ 0.25.

In the case of KYHR, the enrichment ratio is ≤ 0.25.

For the variant SDCD, the enrichment ratio was ≤ 0.25.

For the variant VQYW, the enrichment ratio was ≤ 0.25.

For the variant ESFI, the enrichment ratio was ≤ 0.25.

For MAVC, the enrichment ratio was ≤ 0.25.

Take RFPE: the enrichment ratio was ≤ 0.25.

In the case of RMKP, the enrichment ratio is ≤ 0.25.

As for TNQT, the enrichment ratio was 7.38.

Consider QHRG, for which the enrichment ratio was ≤ 0.25.

On to AFCS, for which the enrichment ratio is ≤ 0.25.

With MAFY, the enrichment ratio amounted to 5.02.

ATCE: the enrichment ratio worked out at 0.272.

As for PTLE, the enrichment ratio was ≤ 0.25.

Take WLVD: the enrichment ratio is ≤ 0.25.

In the case of TGHL, the enrichment ratio amounted to 7.55.

For the variant SVII, the enrichment ratio is 0.415.

Consider ESPD, for which the enrichment ratio was ≤ 0.25.

In the case of EMVV, the enrichment ratio was ≤ 0.25.

Take GRTM: the enrichment ratio was ≤ 0.25.

In the case of VKCW, the enrichment ratio was ≤ 0.25.

Consider DMKR, for which the enrichment ratio is ≤ 0.25.

Turning to YNPD, the enrichment ratio was ≤ 0.25.

As for KYRK, the enrichment ratio is ≤ 0.25.

Regarding PSCN, the enrichment ratio is ≤ 0.25.

For the variant LQRS, the enrichment ratio is ≤ 0.25.

With RQFY, the enrichment ratio stood at 0.976.

Turning to EHIC, the enrichment ratio was ≤ 0.25.

As to FKCE, the enrichment ratio is ≤ 0.25.

For the variant ASLV, the enrichment ratio was 18.7.

Turning to ESMN, the enrichment ratio was ≤ 0.25.

With YNRV, the enrichment ratio was ≤ 0.25.

As for TPTN, the enrichment ratio was ≤ 0.25.

FHSF: the enrichment ratio is ≤ 0.25.

DVLT: the enrichment ratio is ≤ 0.25.

As to LEKY, the enrichment ratio is ≤ 0.25.

Take IGLP: the enrichment ratio is ≤ 0.25.

Consider VVMH, for which the enrichment ratio was ≤ 0.25.

With NVTN, the enrichment ratio is ≤ 0.25.

Take LWPT: the enrichment ratio was ≤ 0.25.

With SWYC, the enrichment ratio was ≤ 0.25.

As to VYDY, the enrichment ratio is ≤ 0.25.

In the case of PNYH, the enrichment ratio was ≤ 0.25.

For FTAN, the enrichment ratio is ≤ 0.25.

With IYVY, the enrichment ratio was ≤ 0.25.

In the case of LLHP, the enrichment ratio is ≤ 0.25.

On to YLYD, for which the enrichment ratio was ≤ 0.25.

Turning to EHFA, the enrichment ratio is ≤ 0.25.

SLRW: the enrichment ratio is ≤ 0.25.

Regarding LHNI, the enrichment ratio was ≤ 0.25.

With EHTV, the enrichment ratio was ≤ 0.25.

As to TLFM, the enrichment ratio is ≤ 0.25.

TPTF: the enrichment ratio is ≤ 0.25.

On to SQRQ, for which the enrichment ratio is ≤ 0.25.

Turning to FERK, the enrichment ratio is ≤ 0.25.

For FWKG, the enrichment ratio was ≤ 0.25.

Regarding CKIF, the enrichment ratio was ≤ 0.25.

As for QAMI, the enrichment ratio was ≤ 0.25.

With HSNI, the enrichment ratio is ≤ 0.25.

On to MDHK, for which the enrichment ratio was ≤ 0.25.

IRYQ: the enrichment ratio is ≤ 0.25.

For the variant RANV, the enrichment ratio is ≤ 0.25.

As for EPLK, the enrichment ratio was ≤ 0.25.

In the case of MICV, the enrichment ratio is ≤ 0.25.

Turning to GKAY, the enrichment ratio is ≤ 0.25.

Turning to HMTV, the enrichment ratio was ≤ 0.25.

For the variant SSGK, the enrichment ratio is ≤ 0.25.

Take LNHM: the enrichment ratio is ≤ 0.25.

On to SAHR, for which the enrichment ratio is ≤ 0.25.

As to FICR, the enrichment ratio is ≤ 0.25.

Take KDYR: the enrichment ratio was ≤ 0.25.

Turning to SCQA, the enrichment ratio is ≤ 0.25.

YQHV: the enrichment ratio is ≤ 0.25.

Consider FDGL, for which the enrichment ratio was ≤ 0.25.

For the variant EHLP, the enrichment ratio is ≤ 0.25.
